# Measured values reported in the supplement of paper PMC11417369.
# This is one part of the list.
# Tested on: PF3D7_0420300 AP2 domain 1 (GST-tagged)
# Test: gcPBM binding intensity (ln(normalized median fluorescence intensity)); higher = stronger DNA binding
# Summary of the method: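 The binding buffer was 1× PBS containing 1% milk, 0.2 mg/ml BSA, 0.5% salmon testes DNA and 0.03% Triton X-100. In it, GST-tagged P. falciparum DNA-binding domains expressed in E. coli were applied for 1 h to an Agilent 4 × 180k array of primer-extended double-stranded 36-bp intergenic genomic probes plus negative controls. Binding intensity, read with Alexa488 anti-GST antibody and a 488 nm scan, is the highest Masliner-normalised natural-log median intensity across replicate spots of either probe orientation.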
row,Sequence,gcPBM binding intensity (ln)
1,ATATTATGATCTATTTTTATATTCTATTTGATAAAT [CACACA_negctrl_site1070],9.2
2,GTTCACCAAAGGTAACGTACACAAACATATATATAT [XGTACX_site1073],9.07
3,TAATTCTAAATAAATGTACACACAAAAATAAATGTA [CACACA_site8509],9.54
4,TATATATATATTATATGTACATAAATATTTATACTC [XGTACX_site114],9.18
5,CTATTTTATATGTGCACACATATACACCCACAAATA [CACACA_site1131],9.59
6,TTGATAAAATGGGAGAAATTAAAAAGGAAAAAAAAA [CACACA_negctrl_site1279],9.23
7,TTATAAAATTTTCTTCTATATTTTAATTATTCTCAT [TGCATGCA_negctrl_site571],9.18
8,TCTCATAGGAAACACACACACACACCCACATATATA [CACACA_site1738],10.2
9,ATATATTTTTTAAATTTAAAAATTATAAAATTTATA [TGCATGCA_negctrl_site36],8.82
10,TAAATAAAAAAAAAAAGTACATACATACAAACATAT [XGTACX_site4427],9.58
11,ATATATGTGCGCGTATGTACATAAAATAAATATACA [XGTACX_site2689],9.58
12,TGGGTCTCTAACTGGTGTACTATTTACATATTATAC [XGTACX_site8593],9.52
13,TATGATTTTAACAACTGTACAATATAATAAATCTAA [XGTACX_site2198],9.01
14,ATATATTTTTAATTACGTACTTAATAATATATACAA [XGTACX_site3285],9.11
15,TAAAAGAAAAATTAGTGTACCAATATTAACATAAAA [XGTACX_site5474],9.25
16,TATATATTAAAATAATCACACACATCAATTAATGGT [CACACA_site8331],9.65
17,AAAAAATTATTAATTTGTACATAAATAACCAAAAAA [XGTACX_site2488],9.16
18,TAATTTATTACCATGTAATTATTACGAATATAGGAT [CACACA_negctrl_site694],9.04
19,TTAAATATAATTATATGTACATATTTATGTATATAT [XGTACX_site5811],9.1
20,AGATTGTATTTATGTACACACATTTTTGGAATATGA [CACACA_site1340],9.49
21,TTGATTAAAATTAGTACACACAAAATACATGCGGGG [CACACA_site5284],9.73
22,AATTTACAAAAAAGAAAAAAAAAAAAAAAGATACTT [CACACA_negctrl_site1434],9.18

row,Sequence,gcPBM binding intensity (ln)
1,ATATGCACTCATTGTGCACACGCATATTACGAAAAG [CACACA_site2637],9.24
2,ATATTATAATGTTTTTACGAATTCGCAAATTATTAT [GTGCAC_negctrl_site470],9.24
3,TTTTTTTTTTTTTTTTTTTTTTTTTTATGATATATA [GTGCAC_negctrl_site365],8.34
4,TTAATTATCCATTTTGCACACATTTTAAAACATGAA [CACACA_site189],9.36
5,TATTATTTACTTATTGCACACATATAAAATATATTT [CACACA_site9017],9.48
6,ATGAACTAAACTAATCGTACAATAAGTTTTATTATA [XGTACX_site4891],9.15
7,AAAAAAATATATAAATGTACATATTGTTTAATTAAT [XGTACX_site3794],9.17
8,TCACACACTCTCAAAAGTACAAGAAGATTATGAAGA [XGTACX_site4748],9.38
9,ATCTATCATATTTATGCACACAAAAATAATTAATTC [CACACA_site8837],9.34
10,GAAATATAATTTATTACACACATTTTAAAAAAATTC [CACACA_site1087],9.26
11,TTCAACGTTTTGGAATGTACAGAAAGGTATCCATCA [XGTACX_site179],8.99
12,AAAAAAAAAAAAAAAAAAAAAAAAAAAAAATATGTG [GTGCAC_negctrl_site657],9.46
13,TTTATAACATTTAAGAGTACAAAAAAATAAATAAAT [XGTACX_site1264],9.37
14,TAAAAGATAAAATATGCATGTGTAATTTTTTTTTTT [TGCATGCA_site955],9.17
15,ATAAAAATTTAAAAAGAACACACGAAAGAAGGACTT [CACACA_site3929],9.83
16,AATACCTACCAAACATGTACATACGCTTCTCAAATA [XGTACX_site5535],9.41
17,TATATAAACACGTACACACACATATCTGTATTTATA [CACACA_site5858],9.95
18,ATATTTTTAGGTGATTATTATTCGGAGAAGCGAATT [CACACA_negctrl_site1097],9.01
19,GTGAGCTCAGACTACACACACAAAGAAAAAAATAAA [CACACA_site1553],9.73
20,AACAAATACAGACACACACACACACCCAAAAAAAAA [CACACA_site515],9.99
21,ATACAACAAAAATAAGCACACACAAATATACATACA [CACACA_site9201],10.1
22,TTTTGAAGCTTTAAAACATATATATATATATATATA [CACACA_negctrl_site184],9.25

row,Sequence,gcPBM binding intensity (ln)
1,AGCAAAACAAAAAAATTAAAATTAACATATAATCAT [GTGCAC_negctrl_site393],9.26
2,AATAAGAGGATACATTGTACATAAAAAAAAAAAATA [XGTACX_site1815],9.33
3,ATGTTCTTATTATTGGTGCAAGAATACACAAGAAAA,9.15
4,TATTGTTCTTATTTAGTGCATATATAATATAATATA [GTGCAC_site9827],9.22
5,AACACATAATAAAATTGTACCCAACATTTCTTTTGA [XGTACX_site8061],9.26
6,TATGTGAATAAATAAGCACACATAAACACATATATA [CACACA_site9359],9.64
7,TATAATAATAATTATACATGCATGAATATTTATATG [TGCATGCA_site811],9.1
8,TCCTATATATAAATATTAATATATATGTATTGGTAT [GTGCAC_negctrl_site23],9.28
9,AAAAAAAAAAAAAACACACACACAAATACAAATGGT [CACACA_site1721],10.2
10,TTTCTTATTTTGGATTGTACGTATATTTTTCATTTT [XGTACX_site224],9.72
11,TTACACATGAGAAAATGTACATATAATAAAATATGT [XGTACX_site904],9.29
12,TTATATTTCAATCATATTGTCACAAGTCATATTTAT [GTGCAC_negctrl_site366],9.13
13,AACAAAAAAAAAAAAAAAAAAAAAAAAAAAAAAATG [CACACA_negctrl_site1127],8.9
14,ATGGACAAGTTAAACGCACACAAATATATACACCCA [CACACA_site8478],9.71
15,AATAAAAAAAATAGCATACACACATATATACATATA [CACACA_site659],9.72
16,TATATATATATGTGCGTGCACGTTACCTTGCTGTTT,9.36
17,TTTCCAAATACAACTACACACAAACAAAAGTTATAT [CACACA_site6544],9.8
18,AAATTTAACAACTTCAAACACACAATATATATATAT [CACACA_site2092],9.53
19,ATTAAATGTTATATTTGTACATATTATATATATATA [XGTACX_site5095],9.35
20,TCCATATTTGTTCACACACACACATATTTATATATA [CACACA_site3570],10.2
21,TTTGTTATTTTTTATTGTACTTTTTTTCTTTCATAA [XGTACX_site4302],9.52
22,TTCATTTTTTATTATAGTACACATAATATTTGCAGA [XGTACX_site4032],9.14

row,Sequence,gcPBM binding intensity (ln)
1,TTTTTTAAATGTATTAAAATTATATATATATATATA [GTGCAC_negctrl_site570],8.93
2,ATACATAAATTTAGAAGTACATAACAAATTTTTAAA [XGTACX_site7448],9.14
3,AATCAAAACAACAATAGTACATAAAAAAACAAAACA [XGTACX_site4181],9.91
4,TGCAGTCTGGAGAAACGTACATAGTATCTGGTAGCT [XGTACX_site4937],9.27
5,ATACATAAATATATATGTACATATATATATATATAT [XGTACX_site1055],9.17
6,AAAATATATTTAAATTGTACACGTTACCATAACAAT [XGTACX_site2598],9.25
7,CTTTTTATTTAGAACACACACAAAAAAAAAAAAAAA [CACACA_site1761],8.96
8,ATGAATACAAAATTATACAAAATTATCAAAAGTATG [CACACA_negctrl_site1453],9.31
9,AGGTTCTTTTTAAATGGTACACATAATTTGAAGATA [XGTACX_site400],9.13
10,GTGTATAGAATGGTTTCTTTTAAGGTTTTTATTTTT [CACACA_negctrl_site564],9.6
11,TCTTAAAAGGGGAATGGAATGGAGAAAATGAAATAA [GTGCAC_negctrl_site30],9.03
12,ATACCCACTTAAAATACACACACACCGAAAAAAAAA [CACACA_site8867],9.98
13,ATATATTAATAATTTTGTACGCATTTCCTTTTTATT [XGTACX_site1638],9.55
14,AAAAAAAAAAAAAAATGTACAAATAAAGAAATATGA [XGTACX_site4371],9.38
15,GAAAATATTTCCGTATGTACTTATTTTAGTCTACTA [XGTACX_site471],9.33
16,AATATTTTCTTGTACGCATGCACATCCAAATTATAT [TGCATGCA_site873],9.37
17,TGACCTGTTCAGGTAACACACATATAAACACATACA [CACACA_site4186],9.6
18,TTTCTTTTTTTTTGAAGTACATAAAAATATAAAAAA [XGTACX_site311],8.66
19,ATATATATATGTATGTATATATATATATATATGTTT [CACACA_negctrl_site248],9.35
20,AATATTATAAAATATTGTACTTAAAAAATTATTAAA [XGTACX_site2469],8.73
21,TAAATTTTTTCTTTTTGTACATATTTTAAAAATGTT [XGTACX_site7526],9.09
22,AAAAAGAAAAAGAGCACACAAAAATATTTAACCTTT [CACACA_site2747],9.7
